# Measured values reported in PubChem BioAssay AID1347073 (National Center for Advancing Translational Sciences (NCATS), 2019).
# Hit rate of the full screen: of about 45,000 compounds, about 200 (0.44%) were called active. Roughly 7% stayed inconclusive and do not appear here. The call rests on the fitted dose curve; in most records, active means well fitted activation curve with a large enough effect; inconclusive means small, poorly fitted or top-dose-only effect; inactive means no such curve, though single readings can be large or run the other way. The list shows a part of the results.
# Assay: qHTS of TDP-43 Inhibitors: NCGC Sytravon Library Screen; further: 0% is about no effect; nearly all actives have a fitted effect of over 55% in size
# Conditions: yeast TDP-43 toxicity rescue, BacTiter-Glo growth, 24 h; series mostly up to 46.1 µM; growth rescue (activation): at the top concentration
# Procedure, shortened: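 TDP-43-expressing yeast, pregrown in raffinose, seeded at OD600 0.02 in galactose medium with compound for 24 hr at 30 deg C. Growth read by BacTiter-Glo luminescence, so rescue of toxicity appears as activation.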
row,Structure (SMILES),growth rescue (activation)
1,O=C(N/C(=C\c1cccnc1)C(=O)N1CCCCC1)c1cccc(Br)c1,inactive: 14.5%
2,Clc1ccc(-c2cn(-c3ccccc3)c3[n+]2CCS3)cc1,inactive: -3.86%
3,NC(=O)c1ccccc1NC(=O)COc1ccc2c(c1)OCO2,inactive: -13.8%
4,O=C(CCC1CCCN(C(=O)c2ccoc2)C1)NCc1ccc(F)c(F)c1 (configuration not stated),inactive: 5.09%
5,CN(C)S(=O)(=O)c1cccc(-c2nn(-c3ccccc3)cc2/C=C2\SC(=S)NC2=O)c1,inactive: 20.8%
6,COc1cc(/C=N/NC(=O)c2cccc(S(=O)(=O)N3CCOCC3)c2)cc(OC)c1O,inactive: 0.133%
7,COc1ccc(N(CC(=O)NCCSCc2ccco2)S(=O)(=O)c2ccccc2)cc1,inactive: 5.09%
8,O=C(COC(=O)C1C2CC3OC(=O)C1C3C2)Nc1ccc(Cl)cc1 (configuration not stated),inactive: 4.26%
9,O=C(CC(=O)NC1CCCCC1)N/N=C/c1ccc(Cl)cc1,inactive: -6.23%
10,CCCCN(C(=O)c1cc2c(s1)CCC2)c1c(N)n(CCC)c(=O)[nH]c1=O,inactive: 23%
11,CCC(C(=O)NCCCN(CC)CC)n1ncn2c(cc3occc32)c1=O (configuration not stated),inactive: 0.578%
12,C/C(=N\N(Cc1ccccc1)c1ccccc1)c1ccncc1,inactive: 6.47%
13,COc1ccc(CN2CCC(N3CC(C)OC(C)C3)CC2)c(OC)c1 (configuration not stated),inactive: -23.4%
14,CCN(CC(=O)NCc1ccncc1)S(=O)(=O)c1ccc(OC)cc1,inactive: 10.6%
15,CC(C)C[C@H](NC(=O)C1CCC(CNC(=O)[C@@H]2CCCN2C(=O)OC(C)(C)C)CC1)C(=O)O (some centres not stated),inactive: 3.62%
16,COc1ccc(CCC(=O)OCc2csc(CC(=O)Nc3ccc(C)cc3)n2)cc1OC,inactive: 6.59%
17,CC1(C(=O)Nc2ccc3[nH]ncc3c2)CCN1C(=O)CCc1ccccc1 (configuration not stated),inactive: 8.72%
18,CSc1nsc(SCC(=O)Nc2ccc(F)cc2)n1,inactive: -1.7%
19,NC(=O)CSc1nnc(-c2ccccc2F)n1C1CC1,inactive: 5.34%
20,COc1cccc(C(NC(C)=O)c2nc(-c3cnn(C)c3)cs2)c1 (configuration not stated),inactive: 23.1%
21,COc1cc(CNc2ncnc3c2ncn3[C@H]2CN(Cc3ccc4c(c3)OCO4)C[C@@H](CO)O2)cc(OC)c1OC,inactive: 5.31%
22,COc1cccc(-c2cc(NC(C)=O)c3ncc(-c4ccc(OC)c(OC)c4)n3c2)c1,inactive: 16%
23,O=C(CSc1n[nH]c(-c2ccccc2)n1)N1CCOCC1,inactive: -2.7%
24,CC(=O)Nc1ccc(S(=O)(=O)n2nc(C)cc2C)cc1,inactive: 8.04%
25,O=C(c1cccc([N+](=O)[O-])c1)N1CCCC(C(=O)N2CCN(c3ccccc3)CC2)C1 (configuration not stated),inactive: 4.12%
26,C/C(N)=C(/C#N)C(=O)COC(=O)C1CCN(S(=O)(=O)c2cccs2)CC1,inactive: -3.72%

row,Structure (SMILES),growth rescue (activation)
1,O=C1CC(NNc2ccccc2)C(=O)N1c1ccccc1 (configuration not stated),inactive: -32.8%
2,CC(C)C(NCC(=O)Nc1ccccc1C(=O)NC1CC1)c1ccccc1 (configuration not stated),inactive: -0.217%
3,CC(C)CN(CC(C)C)S(=O)(=O)N1CCC(C(=O)NCc2ccco2)CC1,inactive: -1.04%
4,CCOc1cc(C(=O)Nc2ccc(S(=O)(=O)NC3=NCCCCC3)cc2)cc(OCC)c1OCC,inactive: -2.42%
5,Cc1ccc(S(=O)(=O)N2CCC(C(=O)NC3CC3)CC2)cc1,inactive: 3.09%
6,CCN(CC)CCN(C)C(=O)c1ccc(OC2CCN(C(=O)C3CC3)CC2)cc1,inactive: 1.45%
7,CC(=O)c1cccc(NC(=S)N2CCN(S(=O)(=O)c3ccc(F)cc3)CC2)c1,inactive: 6.9%
8,Cc1ccsc1/C=C1/CN(C)Cc2c1nc1ccccc1c2C(=O)O,inactive: 21.9%
9,CCOc1ccc(S(=O)(=O)N2CC(=O)Nc3ccccc32)cc1C#N,inactive: 9.24%
10,CCCOc1ccc(/C(O)=C2/C(=O)C(=O)N(c3ccccn3)C2c2ccc(OC)cc2)cc1C (configuration not stated),inactive: -19%
11,O=C(Nc1ccccc1)Nc1cc(S(=O)(=O)N2CCOCC2)ccc1N1CCCC1,inactive: 18.1%
12,O=C(CNC(=O)C1COc2ccccc2O1)N/N=C\c1cccc(O)c1 (configuration not stated),inactive: -8.28%
13,Cc1cccnc1C(NC(=O)C1CCN(Cc2ccc(Cl)cc2)CC1)c1ccccc1 (configuration not stated),inactive: -1.62%
14,CSc1ccccc1C(=O)C1CCCN(C(=O)CCc2cccnc2)C1 (configuration not stated),inactive: 7.66%
15,OCCN1CCN(c2ncnc3c2ncn3[C@H]2CN(Cc3cccs3)C[C@@H](CO)O2)CC1,inactive: -3.51%
16,CCN(CC)S(=O)(=O)c1ccc(NCCc2ccccn2)nc1,inactive: 9.1%
17,Nn1c(SCc2cc([N+](=O)[O-])cc3c2OCOC3)nnc1-c1ccccn1,inactive: 5.71%
18,CN(Cc1ccc(C(F)(F)F)cc1)C(=O)C1CCC(=O)N(C2CC2)C1 (configuration not stated),inactive: 13.2%
19,O=C(CSc1nnc(-c2ccccc2O)o1)N1CCOCC1,inactive: -8.22%
20,COc1cc(OC)cc(N(C(=O)CNC(=O)c2cccs2)C(C(=O)NCC2CCCO2)c2ccc(OC)c(OC)c2)c1 (configuration not stated),inactive: 10.1%
21,O=C(CN1C(=O)NC2(CCCc3ccccc32)C1=O)NCCc1ccc(F)cc1 (configuration not stated),inactive: -2.74%
22,COC(=O)C1=C(N)Oc2cc(C)n(CCCn3ccnc3)c(=O)c2C1c1ccc(Cl)cc1 (configuration not stated),inactive: -10.9%
23,CC1(C(=O)NC2CCc3ccccc32)CCN1CCc1ccccc1 (configuration not stated),inactive: -5.76%
24,CCOC(=O)C(Cc1ccccc1)C(=O)Nc1cccc(C)c1 (configuration not stated),inactive: -9.1%
25,O=C(CNC(=O)c1ccco1)OCc1ccccc1F,inactive: -1.05%
26,N#Cc1nc(COc2ccc(Br)cc2)oc1NCCCn1ccnc1,inactive: 14%
